Experimental data as given in PubChem BioAssay AID624418 (National Center for Advancing Translational Sciences (NCATS), 2012).
Among all 410,000 compounds or so, about 530 (0.13%) were called active. The inconclusive results got no clear call from the source; some entries with a clear call stand among them for comparison. The call rests on the fitted dose curve; in most records, active means well fitted inhibition curve with a large enough effect; inconclusive means small, poorly fitted or top-dose-only effect, or another doubt; inactive means no such curve, though single readings can be large or run the other way. Potencies of inconclusive entries are doubtful fits and often do not repeat.

Test: qHTS of GLP-1 Receptor Inverse Agonists: Cytotox Screen
Conditions: HEK293 cAMP-luciferase reporter cells, luminescence, 24 h; activity change, negative = inhibition: at 38.3 µM (top of the series) unless noted
Summary of the method: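 Quantitative HTS format, 1536 wells, 200 cells/uL seeded. Compounds: 23 nL, 24 h, 37 °C. Detection: luciferase reagent, luminescence at 12 min RT; decreased signal taken as cytotoxic.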
On the % scale 0 is the no-effect control and ±100 the full control effect; potency means the concentration at half of the fitted maximal effect.

For `COCc1ccc(C(=O)NC2CCSc3ccccc32)cc1` (centres undefined), which Potency is on record?
Its Potency is inconclusive: 0.501 µM [inhibitor, full curve, poor fit].

Which “activity change, negative = inhibition” value does the source give for `CCOc1ccc(-c2cc(C(=O)NCc3ccccc3)[nH]n2)c(C)c1` here?
Its value is inactive: 1.22%.

For `CC(=O)Nc1ccc(S(=O)(=O)Nc2cccc(-c3nc4cc(C)ccc4o3)c2)cc1`, which Potency is on record?
The Potency was inconclusive: 0.891 µM [inhibitor, full curve].

Which Potency does the source give for `O=C(Cc1csc(NC(=O)Nc2ccc(Cl)cc2)n1)NCc1ccccn1` here?
Its Potency is inconclusive: 14.1 µM [inhibitor, single point].

For `Cc1ccccc1NC(=O)CSC(=O)c1ccccc1`, which Potency is on record?
The Potency was inconclusive: 6.31 µM [inhibitor, partial curve, poor fit].

With `CCCOc1cccc(-c2cc(C(=O)NNC(=S)NCC)c3ccccc3n2)c1` as the compound, how does the Potency read?
The Potency was inconclusive: 31.6 µM [inhibitor, single point].

Which Potency does the source give for `CSc1nnc(-c2sc3cc(C(F)(F)F)cnc3c2-c2ccccc2)n1C` here?
The Potency was inconclusive: 10 µM [inhibitor, single point].

With `COc1ccc(CN(C)Cc2nc3scc(-c4ccccc4)c3c(=O)[nH]2)cc1OC` as the compound, how does the Potency read?
The Potency was inconclusive: 31.6 µM [inhibitor, single point].

With `Cc1ccc(CN2CC(C(=O)Nc3ccncc3)CC2=O)cc1` (centres undefined) as the compound, how does the Potency read?
Its Potency is inconclusive: 28.2 µM [inhibitor, single point].

Which Potency does the source give for `Cc1[nH]c2ccccc2c1/C=N/Nc1nncn1N` here?
Its Potency is inconclusive: 15.8 µM [inhibitor, single point].

Which Potency does the source give for `COc1ccc(C(CNC(=O)C(CCSC)NC(=O)c2ccccc2OC)N2CCCCC2)cc1` (centres undefined) here?
Its Potency is inconclusive: 28.2 µM [inhibitor, single point].

Which Potency does the source give for `CCC1=NN(C(=O)C(=O)Nc2ccccc2OC)C(O)(C(F)(F)F)C1` (centres undefined) here?
The Potency was inconclusive: 5.62 µM [inhibitor, partial curve].

Which Potency does the source give for `Cc1cccc(NC(=S)NC(NC(=O)OCc2ccccc2)C(Cl)(Cl)Cl)c1` (centres undefined) here?
Its Potency is inconclusive: 28.2 µM [inhibitor, partial curve, poor fit].

For `COc1ccc2cc(C(=O)NCc3ccco3)c(=Nc3ccc(C(=O)O)cc3)oc2c1`, which “activity change, negative = inhibition” value is on record?
Its value is inactive: -19.2%.

With `Cc1[nH]c2ccccc2c1N=Nc1ccccc1C(=O)O` as the compound, how does the Potency read?
The Potency was inconclusive: 20 µM [inhibitor, single point].

For `O=C(O)Cc1coc2cc3c(cc12)CCC3`, which activity change, negative = inhibition is on record?
The activity change, negative = inhibition was inactive: 1% [at 7.66 µM].

For `Cn1c(SCC(=O)N2c3ccccc3CCc3ccccc32)nnc1-c1ccc(O)cc1`, which Potency is on record?
The Potency was inconclusive: 10 µM [inhibitor, single point].

With `CCCNC(=O)c1cc(-c2ccc(Br)cc2)on1` as the compound, how does the “activity change, negative = inhibition” value read?
The value was inactive: -17.2%.

Which “activity change, negative = inhibition” value does the source give for `Cc1c(Cl)cccc1-n1ncc(C(=O)Nc2ccc3c(c2)OCCO3)c1C1CCN(C(=O)OC(C)(C)C)CC1` here?
The value was inactive: -3.94%.

With `Cc1cccc(NC(=S)Nc2cccc(C(F)(F)F)c2)n1` as the compound, how does the Potency read?
The Potency was inconclusive: 1.58 µM [inhibitor, full curve, poor fit].

With `COc1cccc(C=Nc2ccccc2C(=O)Nc2nccs2)c1OC` as the compound, how does the “activity change, negative = inhibition” value read?
Its value is inactive: 90.9%.

With `O=C(N/N=C/c1ccccn1)c1ccc(Cl)cc1` as the compound, how does the Potency read?
Its Potency is inconclusive: 2.82 µM [inhibitor, full curve].

With `COc1ccc(NC(=O)/C(C#N)=C/c2ccc(-c3ccccc3C(=O)O)o2)cc1` as the compound, how does the Potency read?
The Potency was inconclusive: 10 µM [inhibitor, partial curve].

For `CC(C)[C@H](NC(=O)N1CCn2c1nc1ccccc12)C(=O)N1CCCCC1`, which Potency is on record?
Its Potency is inconclusive: 10 µM [inhibitor, single point].

For `Cc1ccccc1OCc1ccc(-c2nc(C#N)c(NCCCN(C)C)o2)o1`, which “activity change, negative = inhibition” value is on record?
The value was inactive: -5.3%.

With `CCN(CC(=O)Nc1ccc(NC(C)=O)cc1)CC(=O)Nc1ccc(Cl)c(Cl)c1` as the compound, how does the “activity change, negative = inhibition” value read?
Its value is inactive: 12.5%.

For `CCCCCn1c(CN2CCN(c3cccc(Cl)c3)CC2)nc2c1c(=O)[nH]c(=O)n2C`, which Potency is on record?
Its Potency is inconclusive: 11.2 µM [inhibitor, single point].

With `O=C(CC1N=C2c3ccccc3N=C(SCc3ccccc3Cl)N2C1=O)NCc1ccco1` (centres undefined) as the compound, how does the Potency read?
The Potency was inconclusive: 28.2 µM [inhibitor, single point].

With `Cc1cccc(C(=O)NNC2=C(C(=O)C(F)(F)F)CCC2)c1O` as the compound, how does the Potency read?
The Potency was inconclusive: 5.01 µM [inhibitor, partial curve, poor fit].

Which “activity change, negative = inhibition” value does the source give for `COC(=O)c1ccc(Nc2ncnc3c2nc2n3CCCC2)cc1` here?
The value was inactive: 4.21%.

With `CN(CC(=O)Nc1ccccc1Br)C(=O)c1cc([N+](=O)[O-])ccc1N1CCOCC1` as the compound, how does the Potency read?
The Potency was inconclusive: 25.1 µM [inhibitor, single point].

Which “activity change, negative = inhibition” value does the source give for `O=C(c1cc2c(=O)oc3ccccc3c2s1)N1CCN(c2cccc(Cl)c2)CC1` here?
Its value is inactive: -1.11%.

Which “activity change, negative = inhibition” value does the source give for `O=C(CCc1ccc(S(=O)(=O)NCc2ccccc2)cc1)NCc1cccnc1` here?
Its value is inactive: 2.71%.

With `CC1(C)CCC(C)(C)NC(=S)N1` as the compound, how does the Potency read?
Its Potency is inconclusive: 11.2 µM [inhibitor, partial curve, poor fit].

For `CCN(CC)S(=O)(=O)c1ccc(N2CCCC2)c(NC(=O)CC(C)(C)C)c1`, which Potency is on record?
The Potency was inconclusive: 28.2 µM [inhibitor, single point].

For `CCOC(=O)Cc1csc(NC(=O)CSc2nnc(-c3ccc(F)cc3)o2)n1`, which “activity change, negative = inhibition” value is on record?
Its value is inactive: 4.54%.

For `Cc1ccc(NC(=O)N2CCCN(Cc3ccc(F)cc3)C2)cc1C`, which Potency is on record?
The Potency was inconclusive: 22.4 µM [inhibitor, single point].

With `CCOC(=O)C(=NC1CCS(=O)(=O)C1)NNc1cc(Cl)ccc1Cl` (centres undefined) as the compound, how does the Potency read?
Its Potency is inconclusive: 0.447 µM [inhibitor, full curve, poor fit].

For `COc1ccc(OC)c(NC(=O)CSc2c3c(nc4ccccc24)CCCC3)c1`, which Potency is on record?
The Potency was inconclusive: 11.2 µM [inhibitor, partial curve].

For `Cc1cccc(C(=O)NC(C(=O)Nc2ccc(S(=O)(=O)Nc3nccs3)cc2)C(C)C)c1` (centres undefined), which “activity change, negative = inhibition” value is on record?
Its value is inactive: -19.8%.

With `Cn1c(NC(=O)c2ccccc2F)cc(=O)n(C)c1=O` as the compound, how does the “activity change, negative = inhibition” value read?
Its value is inactive: 0.073%.

For `O=C1NC(=NCc2ccccc2)S/C1=C/c1ccc(O)cc1`, which Potency is on record?
Its Potency is inconclusive: 28.2 µM [inhibitor, single point].

With `C=CC[C@@H](CC(=O)N(CCO)Cc1ccccc1)C(=O)N[C@H](COC(=O)[C@@H](CC=C)Cc1ccc(F)cc1)c1ccccc1` as the compound, how does the Potency read?
The Potency was inconclusive: 28.2 µM [inhibitor, single point].

Which Potency does the source give for `COc1ccc(NC(=O)c2cccs2)cc1C(=O)N1CCN(c2ccccc2)CC1` here?
Its Potency is inconclusive: 3.98 µM [inhibitor, full curve].

Which Potency does the source give for `COc1cc(/C=C/C(=O)c2ccc(Cl)s2)cc(OC)c1O` here?
Its Potency is inconclusive: 11.2 µM [inhibitor, single point].

With `C(=N\Nc1nc2ccccc2[nH]1)/c1ccccn1` as the compound, how does the Potency read?
Its Potency is active: 11.2 µM.

With `CCCCn1nnnc1C1(C)CCC(=O)N1CCCn1ccnc1` (centres undefined) as the compound, how does the Potency read?
Its Potency is inconclusive: 10 µM [inhibitor, single point].

For `CCN(CC)S(=O)(=O)c1ccc(C(=O)Nc2nnc(NC(=S)Nc3ccccc3)s2)cc1`, which “activity change, negative = inhibition” value is on record?
The value was inactive: -12.3%.

Which Potency does the source give for `C[C@H](O)[C@@H]1CN2CCc3c([nH]c4ccc(-c5ccc6c(c5)OCO6)cc34)[C@@H]2C[C@@H]1N(C)C(=O)Nc1ccc(F)cc1` here?
The Potency was inconclusive: 10 µM [inhibitor, single point].

With `COP(=O)(OC)c1ccc(NCc2cc(O)ccc2O)cc1` as the compound, how does the “activity change, negative = inhibition” value read?
Its value is inactive: -12.6%.

Which “activity change, negative = inhibition” value does the source give for `CCC(CO)Oc1cc(NCc2ccccc2Cl)c2ncn(C(C)C)c2c1` (centres undefined) here?
Its value is inactive: -18.1%.

Which Potency does the source give for `Cc1ccc(OCC(=O)N2CCN(c3nnc(-c4ccccc4)c4ccccc34)CC2)cc1` here?
Its Potency is inconclusive: 28.2 µM [inhibitor, single point].

For `COc1ccc(/C(O)=C2/C(=O)C(=O)N(CCN(C)C)C2c2cccnc2)cc1C` (centres undefined), which “activity change, negative = inhibition” value is on record?
Its value is inactive: 2.87%.

For `O=C(CSc1nc2ccccc2s1)N1CCCCC1`, which Potency is on record?
The Potency was inconclusive: 31.6 µM [inhibitor, single point].

For `Cc1cccc(NC(=S)NNC(=O)c2ccco2)c1`, which “activity change, negative = inhibition” value is on record?
Its value is inactive: 2.97%.

Which Potency does the source give for `Cc1ccc(C)c(NC(=O)c2cc(-c3cc(C)ccc3O)n[nH]2)c1` here?
Its Potency is inconclusive: 11.2 µM [inhibitor, single point].

For `CCOC(=O)/C(C#N)=C/C1=C(N2CCCC2)CC(C)(CC)OC1` (centres undefined), which Potency is on record?
The Potency was inconclusive: 28.2 µM [inhibitor, single point].

For `COC(=O)c1c(C)sc(-c2c(-c3cccc(Cl)c3)[nH]c3c2c(=O)[nH]c(=O)n3C)c1O`, which “activity change, negative = inhibition” value is on record?
The value was inactive: 2.11%.

For `COc1ccccc1NC(=S)NCc1ccc2c(c1)cc(C)n2C`, which Potency is on record?
Its Potency is inconclusive: 11.2 µM [inhibitor, single point].

For `C=C(C(=O)c1ccccc1)C(NC(C)(C)C)c1ccccc1` (centres undefined), which Potency is on record?
Its Potency is active: 5.01 µM.

Which Potency does the source give for `CCC(=O)NC(c1ccc(OC)c(OC)c1)c1cc(Cl)c2cccnc2c1O` (centres undefined) here?
The Potency was inconclusive: 3.98 µM [inhibitor, full curve].

With `O=C(NNc1cccc(Cl)n1)c1ccccc1CC[N+](=O)[O-]` as the compound, how does the Potency read?
The Potency was inconclusive: 5.62 µM [inhibitor, partial curve].

Which Potency does the source give for `Cc1ccc(-n2ncc(C(=O)NCC3CCN(C4CCCC4)C3)c2C2CCN(C(=O)OC(C)(C)C)CC2)cc1` (centres undefined) here?
The Potency was inconclusive: 28.2 µM [inhibitor, single point].

For `CC(C)c1ccc(-c2csc(NC(=O)c3cccs3)c2C(=O)O)cc1`, which Potency is on record?
Its Potency is inconclusive: 3.98 µM [inhibitor, partial curve].

For `Cc1nnc(NC(=O)c2ccc3ccccc3n2)s1`, which Potency is on record?
Its Potency is inconclusive: 12.6 µM [inhibitor, single point].

For `O=C(Nc1nc(-c2ccccn2)cs1)C1CCCC1`, which Potency is on record?
Its Potency is inconclusive: 14.1 µM [inhibitor, single point].

With `CSc1nnc(-c2sc3cc(C(F)(F)F)cnc3c2-c2ccccn2)n1C` as the compound, how does the “activity change, negative = inhibition” value read?
Its value is inactive: -9.84%.

With `COc1cc(C(=O)NNC2=CC(=O)CC(C)(C)C2)cc(OC)c1OC` as the compound, how does the Potency read?
The Potency was inconclusive: 12.6 µM [inhibitor, single point].

With `CCn1c(Cc2ccccc2)nnc1SCC(=O)Nc1nccs1` as the compound, how does the “activity change, negative = inhibition” value read?
Its value is inactive: 0.887%.
